{
  "source": "PubChem BioAssay AID651820",
  "about": "(National Center for Advancing Translational Sciences (NCATS), 2012)",
  "note": "Where “and” joins values, the source holds several entries; their conditions need not be identical. Identical values can stand only once. Among all 340,000 compounds or so, about 12,000 (3.5%) were called active. Inconclusive results, whose numbers are uncertain, are shown with a selection of clear calls. Calls come from the whole dose curve; as a rule, active = well fitted inhibition curve with a large enough effect; inconclusive = small, poorly fitted or top-dose-only effect, or another doubt; inactive = no such curve, though single readings can be large or run the other way. Potencies of inconclusive entries are doubtful fits and often do not repeat. % is set by controls: 0 for no effect and ±100 for the full control effect; potency is the fitted concentration of half-maximal effect; tags give direction and shape of the fitted curve.",
  "data": [
    {"test": "qHTS Assay for Inhibitors of Hepatitis C Virus (HCV)", "conditions": "Huh7.5.1 HCVcc-Cre (HCVcc is cell-culture hepatitis C virus) infection, luciferase reporter, 44 h; activity change, negative = inhibition: at 41.8 µM (top of the series)", "how_it_was_run": "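HCVcc-Cre virus at an moi near 0.5 was added right after compound to cells cultured 4 h from seeding (1,000 cells/well). Luciferase activity was determined 44 h later, 15 min after substrate addition at RT.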", "values": [
      {"smiles": "Cc1ccc(C(NC(=O)NCCCN2CCOCC2)=C(Cl)Cl)cc1F", "Potency": "inconclusive: 31.6 µM [inhibitor, single point]"},
      {"smiles": "CCOC(=O)C1=C(C)N(C)C(=O)NC1c1cc2c(cc1[N+](=O)[O-])OCO2", "note": "(configuration not stated)", "activity change, negative = inhibition": "inactive: 7.88%"},
      {"smiles": "O=C(Cc1cccs1)NNC(=S)NC(=O)c1ccc(F)c(F)c1", "Potency": "inconclusive: 4.47 µM [inhibitor, full curve]"},
      {"smiles": "C/C(=N\\NC(=S)NCCc1ccccc1)c1ccc(Cl)cc1", "Potency": "inconclusive: 22.4 µM [inhibitor, single point]"},
      {"smiles": "COc1ccc(/C=c2/sc3n(c2=O)C(c2ccccc2OC)C2=C(N=3)c3ccccc3CC2)cc1O", "note": "(configuration not stated)", "Potency": "inconclusive: 3.55 µM [inhibitor, full curve]"},
      {"smiles": "CCC(CO)N=CC1=C(O)CC(c2ccccc2)CC1=O", "note": "(configuration not stated)", "Potency": "inconclusive: 31.6 µM [inhibitor, single point]"},
      {"smiles": "c1nc2n(n1)C1=C(CCCC1)C1(CCCCC1)N2", "activity change, negative = inhibition": "inactive: 18.2%"},
      {"smiles": "Nc1ccc2ncccc2c1N", "Potency": "inconclusive: 11.2 µM [inhibitor, single point]"},
      {"smiles": "CC(=O)Nc1ccc(N(C(=O)Cc2c[nH]c3ccccc23)C(C(=O)NC2CCCCC2)c2ccco2)cc1", "note": "(configuration not stated)", "Potency": "inconclusive: 14.1 µM [inhibitor, partial curve]"},
      {"smiles": "Oc1ccccc1Nc1nc(NCC2CCCO2)c2ccccc2n1", "note": "(configuration not stated)", "Potency": "inconclusive: 31.6 µM [inhibitor, single point]"},
      {"smiles": "COc1cccc(N2CCN(CC(=O)N3CCN(S(=O)(=O)c4ccc(Cl)cc4)CC3)CC2)c1", "Potency": "inconclusive: 31.6 µM [inhibitor, single point]"},
      {"smiles": "COc1ccc(OC)c(-c2cc(C(=O)Nc3ccc(F)cc3F)no2)c1", "activity change, negative = inhibition": "inactive: 2.9%"},
      {"smiles": "O=C(Nc1c(Cl)cc(Cl)cc1C(=O)NCCN1CCOCC1)c1ccc(Cl)cc1Cl", "Potency": "inconclusive: 14.1 µM [inhibitor, single point]"},
      {"smiles": "CCOc1cc2c(cc1O)CCC1C2CCC2(C)C(O)CCC12", "note": "(configuration not stated)", "Potency": "inconclusive: 8.91 µM [inhibitor, single point]"},
      {"smiles": "CCc1ccccc1NC(=O)CN(C)C(=O)CSc1nnc(Nc2ccc(C)cc2)s1", "Potency": "inconclusive: 3.98 µM [inhibitor, full curve, poor fit]"},
      {"smiles": "COc1ccc(NC(=O)c2[nH]c(C)c(C(C)=O)c2C)cc1S(=O)(=O)N1CCOCC1", "Potency": "inconclusive: 17.8 µM [inhibitor, partial curve]"},
      {"smiles": "COc1ccc2c3c(cccc13)OCC2=O", "Potency": "inconclusive: 31.6 µM [inhibitor, single point]"},
      {"smiles": "OC1(CNCc2cn[nH]c2-c2cc3ccccc3o2)CCCCC1", "Potency": "inconclusive: 31.6 µM [inhibitor, single point]"},
      {"smiles": "O=C(C[n+]1ccc(/C=C/c2ccccc2)cc1)c1ccc2c(c1)OCCO2", "Potency": "inconclusive: 12.6 µM [inhibitor, partial curve]"},
      {"smiles": "CCc1ccc(OCC2c3cc(OC)c(OC)cc3CCN2C(=S)NCCOC)cc1", "note": "(configuration not stated)", "Potency": "inconclusive: 31.6 µM [inhibitor, single point]"},
      {"smiles": "COc1cc(C(=O)NCCOc2cc(C)cc(C)c2)cc(OC)c1OC", "Potency": "inconclusive: 4.47 µM [inhibitor, full curve]"},
      {"smiles": "C=CCn1c(C)cc(C2=NNC(=NC(C)(C)C)SC2)c1C", "Potency": "inconclusive: 17.8 µM [inhibitor, single point]"},
      {"smiles": "COc1ccc(CC2(CO)CCN(Cc3cnc(-c4ccccc4C)nc3)CC2)cc1", "Potency": "inconclusive: 11.2 µM [inhibitor, partial curve]"},
      {"smiles": "CCSc1nc(C)nc2c1oc1ccccc12", "Potency": "inconclusive: 31.6 µM [inhibitor, single point]"},
      {"smiles": "COc1ccc(NC(=O)CNS(=O)(=O)c2cccc3nonc23)c(OC)c1", "Potency": "inconclusive: 14.1 µM [inhibitor, single point]"},
      {"smiles": "Cn1c(N)c(C(=O)COC(=O)c2cc(S(=O)(=O)N3CCOCC3)ccc2F)c(=O)n(C)c1=O", "Potency": "inconclusive: 11.2 µM [inhibitor, single point]"},
      {"smiles": "N#Cc1ccc(Oc2ccc(S(=O)(=O)N3CCOCC3)cn2)cc1", "activity change, negative = inhibition": "inactive: 0.422%"},
      {"smiles": "CCOC(=O)/C=C/C(=O)OCC(=O)NCc1ccccc1", "activity change, negative = inhibition": "inactive: 22.9%"},
      {"smiles": "Cc1cc(C)c(C#N)c(SCc2ccccc2[N+](=O)[O-])n1", "activity change, negative = inhibition": "inactive: -22.7%"},
      {"smiles": "COc1cc(CNCc2ccc(SC)cc2)cc(OC)c1", "Potency": "inconclusive: 20 µM [inhibitor, single point]"},
      {"smiles": "O=C(CN1CC[n+]2c(-c3cccs3)csc21)c1ccc(-c2ccccc2)cc1", "Potency": "inconclusive: 12.6 µM [inhibitor, single point]"},
      {"smiles": "C=CCOC(=O)C1=C(C)NC(SCC(=O)Nc2nccs2)=C(C#N)C1c1cccs1", "note": "(configuration not stated)", "Potency": "inconclusive: 31.6 µM [inhibitor, single point]"},
      {"smiles": "Cn1cc(CN2CCC(C(=O)Nc3cccc(-c4cccc(F)c4)c3)CC2)cn1", "Potency": "active: 10 µM"},
      {"smiles": "Cc1cc(C)c2[nH]c(=O)c(C(c3nnnn3Cc3ccc4c(c3)OCO4)N3CCC(C)CC3)cc2c1", "note": "(configuration not stated)", "Potency": "inactive"},
      {"smiles": "Cc1nc2ncccn2c1-c1csc(Nc2ccccc2)n1", "Potency": "active: 11.2 µM"},
      {"smiles": "O=C(Nc1ccc(N2CCOCC2)c(Cl)c1)c1cccc(F)c1", "Potency": "inconclusive: 22.4 µM [inhibitor, single point]"},
      {"smiles": "COc1cc(NC(=S)NCc2ccco2)cc(OC)c1", "Potency": "inconclusive: 7.94 µM [inhibitor, partial curve]"},
      {"smiles": "CCC(c1nnnn1CCc1ccccc1)N(Cc1ccco1)Cc1cc2cccc(C)c2[nH]c1=O", "note": "(configuration not stated)", "Potency": "inconclusive: 31.6 µM [inhibitor, single point] and inconclusive: 10 µM [inhibitor, partial curve]"},
      {"smiles": "CC(CCc1ccccc1)NC(C)C(O)c1ccc(O)cc1", "note": "(configuration not stated)", "Potency": "inconclusive: 0.501 µM [inhibitor, full curve, poor fit]"},
      {"smiles": "NS(=O)(=O)c1ccc(CCNc2ccc(C(F)(F)F)cn2)cc1", "activity change, negative = inhibition": "inactive: 15%"},
      {"smiles": "Cc1cc(/C=N/n2c(COc3ccccc3)nc3ccccc3c2=O)c(O)c([N+](=O)[O-])c1", "Potency": "inconclusive: 14.1 µM [inhibitor, single point]"},
      {"smiles": "O=C(Cc1ccccc1)NC(CSSCC(NC(=O)Cc1ccccc1)C(=O)O)C(=O)O", "note": "(configuration not stated)", "activity change, negative = inhibition": "inactive: 12%"},
      {"smiles": "Brc1cccc(CSc2nnc(-c3ccncc3)o2)c1", "Potency": "inconclusive: 1.58 µM [inhibitor, partial curve]"},
      {"smiles": "c1ccc2c(c1)Oc1cccc3cccc-2c13", "Potency": "inconclusive: 22.4 µM [inhibitor, single point]"},
      {"smiles": "NC(=O)Cc1ccc(Nc2nnc(-c3ccccc3)c3ccccc23)cc1", "activity change, negative = inhibition": "inactive: 9.85%"},
      {"smiles": "COc1ccc(CN2CCN(C(=O)c3cccc4ccccc34)CC2)cc1Br", "Potency": "inconclusive: 31.6 µM [inhibitor, single point]"},
      {"smiles": "O=C1c2ccncc2C(=O)N1CO", "activity change, negative = inhibition": "inactive: 0.832%"},
      {"smiles": "CC1CCCCN1S(=O)(=O)c1ccc(S(=O)(=O)N2CCN(C)CC2)cc1", "note": "(configuration not stated)", "activity change, negative = inhibition": "inactive: 4.29%"},
      {"smiles": "COc1ccc(N(C(=O)c2snc(C(N)=O)c2N)C(C(=O)NC2CCCCC2)c2ccc(C)o2)c(OC)c1", "note": "(configuration not stated)", "Potency": "inconclusive: 11.2 µM [inhibitor, single point]"},
      {"smiles": "O=S(=O)(c1ccc(-c2ccon2)s1)N1CCN(c2ccncc2)CC1", "activity change, negative = inhibition": "inactive: -10%"},
      {"smiles": "COc1ccc(N2CCN(C(=O)[C@@H](NC(=O)c3cc(OC)cc(OC)c3)C(C)C)CC2)cc1", "Potency": "inconclusive: 12.6 µM [inhibitor, single point]"},
      {"smiles": "COc1ccc(/C(C)=N/NC(=O)c2ccccc2OCc2ccccc2)c(OC)c1", "activity change, negative = inhibition": "inactive: -10.8%"},
      {"smiles": "COCCCNC(=O)C(=O)Nc1ccc2c(c1)N(S(=O)(=O)c1cccs1)CCC2", "Potency": "inconclusive: 35.5 µM [inhibitor, partial curve, poor fit]"},
      {"smiles": "CCOC(=O)c1sc(NN=C(C(=O)OC)C(=O)OC)c(C(=O)OCC)c1C", "Potency": "inconclusive: 25.1 µM [inhibitor, partial curve, poor fit]"},
      {"smiles": "Cc1ccc(S(=O)(=O)N(CC(=O)NCCSCc2ccco2)c2cc(C)ccc2C)cc1", "Potency": "inconclusive: 31.6 µM [inhibitor, single point]"},
      {"smiles": "CC(O)CN(C)CC/C=C1/c2ccccc2CSc2ccccc21", "note": "(configuration not stated)", "Potency": "inconclusive: 22.4 µM [inhibitor, single point]"},
      {"smiles": "CCN(CC(=O)NCc1ccc(F)cc1)C(=O)COc1ccc(C)c(C)c1", "Potency": "inconclusive: 35.5 µM [inhibitor, partial curve, poor fit]"},
      {"smiles": "CC(=O)N1CCc2c(sc(NC(=O)Cc3ccc(F)cc3)c2C#N)C1", "activity change, negative = inhibition": "inactive: -19.2%"},
      {"smiles": "Cc1ccc2cc(/C=N/NC(=O)c3ccc(F)cc3)c(Cl)nc2c1", "activity change, negative = inhibition": "inactive: -17.9%"},
      {"smiles": "Cc1cc2c(C)nc3ccccc3c2o1", "Potency": "active: 11.2 µM"},
      {"smiles": "CCOC(=O)C1=C(C)c2ccccc2OC1(C(=O)OCC)c1ccccc1", "note": "(configuration not stated)", "Potency": "inconclusive: 28.2 µM [inhibitor, single point]"},
      {"smiles": "CC(=O)c1c(C)[nH]c(C(=O)NCCc2c[nH]c3ccccc23)c1C", "Potency": "inconclusive: 25.1 µM [inhibitor, single point]"},
      {"smiles": "CC(C)(C)NC(=O)CN(C(=O)c1snc(C(=O)NC2CCCCC2)c1N)c1ccccc1F", "Potency": "inconclusive: 6.31 µM [inhibitor, full curve, poor fit]"},
      {"smiles": "O=C1C=C(c2cc(C(F)(F)F)cc(C(F)(F)F)c2)C[C@@H](c2ccc3c(c2)OCO3)C1", "Potency": "inconclusive: 8.91 µM [inhibitor, partial curve]"},
      {"smiles": "O=C(N/N=C/c1cc(Br)cs1)c1c[nH]c2ccccc12", "Potency": "inconclusive: 15.8 µM [inhibitor, single point]"},
      {"smiles": "CC(C)NS(=O)(=O)c1ccc(OCC(=O)Nc2ccccc2F)cc1", "activity change, negative = inhibition": "inactive: 7.88%"},
      {"smiles": "CC(=O)N1CCCc2cc(S(=O)(=O)NC(C(=O)NC(C)c3ccccc3)C(C)C)ccc21", "note": "(configuration not stated)", "Potency": "inconclusive: 31.6 µM [inhibitor, single point]"}
    ]}
  ]
}
